Experimental data taken from PubChem BioAssay AID493208 (National Center for Advancing Translational Sciences (NCATS), 2011).
About 340 (0.77%) of roughly 44,000 compounds were called active. About 5% were inconclusive and are not listed. The call rests on the fitted dose curve; in most records, active means well fitted inhibition curve with a large enough effect; inconclusive means small, poorly fitted or top-dose-only effect; inactive means flat fitted curve, though single readings scatter. This is one part of the list.

Assay: Acumen qHTS Assay for Inhibitors of the mTORC1 Signaling Pathway in MEF (Tsc2-/-, p53-/-) Cells: Sytravon;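 further: plate controls were DMSO for no effect and rapamycin for full effect; nearly all actives have a fitted effect of over 50% in size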
Details: phospho-rpS6 immunofluorescence/PI, 24 h; series mostly up to 38.3 µM; activity change, negative = inhibition: at the top concentration
Method in brief: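 Tsc2-/-, p53-/- mouse embryonic fibroblasts (empty-vector line) exposed to compound 24 hrs at 37 C, fixed, immunostained for phospho-rpS6 and counterstained with propidium iodide. Acumen laser scanning gives % positive cells from Alexa 488/PI ratio, thresholded using 7.5 nM rapamycin; PI count gives viability.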

Activity change, negative = inhibition, inactive:
COc1ccc(OCc2nc(-c3ccc(-n4cccc4)cc3)no2)cc1 1.6%, Cc1cc(C)n(-c2nc(C)c(C)c(=O)n2CC(=O)Nc2ccc(OC(F)(F)F)cc2)n1 -0.333%, Cc1cccc(NC(=O)c2cc(S(=O)(=O)N3CCCCCC3)cn2C)c1C -4.13%, Cc1ccc(NC(=O)Cn2cc(C(=O)C3CC3)c3ccccc32)cc1C 2.63%, Cc1ccc(CNC(=O)c2ccc(Cn3c(=O)c4ccccc4n(CC(=O)Nc4c(C)cc(C)cc4C)c3=O)cc2)cc1 0.977%, O=C(NCC(c1cccs1)S(=O)(=O)c1cccs1)c1cccc(F)c1 (stereo not given) -5.77%, c1cnc(N2CCN(c3ncc4c(n3)CCNC4)CC2)nc1 2.97%, COc1ccc(OC)c(-n2nnc(-c3nc(-c4cc(OC)c(OC)c(OC)c4)no3)c2C)c1 -3.66%, O=c1oc2c3c(ccc2c2ccccc12)OCN(Cc1ccc(Cl)cc1)C3 1.23%, COc1ccc(-c2nc3ccccc3n3c(-c4ccccc4)c4c(=O)n(C)c(=O)n(C)c4c23)cc1OC -1.42%, CN1C(=O)c2ccccc2Sc2ccc(NC(=O)N3CCN(c4ccccc4)CC3)cc21 -10%, CC(=O)N1c2ccccc2C(C)(c2ccc(C)cc2)CC1(C)C (stereo not given) -16.9%, O=C(NCc1ccccc1)c1cccn1-c1nnc(N2CCCC2)s1 0.286%, COc1cc2c(cc1OC)C(COc1ccc3c(C)cc(=O)oc3c1)N(C(=O)c1ccccc1C)CC2 (stereo not given) -7.39%, COc1ccc(-n2nnnc2C2CCN(S(=O)(=O)c3ccc(C)cc3)CC2)cc1 -0.856%, COCCn1c(=O)[nH]c2cc(C(=O)N3CCN(c4ccccc4)CC3)ccc2c1=O 5.95%, CCOc1ccc(CNC(=O)c2nn(-c3ccc(OC)cc3)c(=O)c3c2c2ccccc2n3C)cc1 4.39%, CC(=O)N1CCc2cc(S(=O)(=O)NC(Cc3ccccc3)C(=O)Nc3cc(C)ccc3C)ccc21 (stereo not given) 1.96%, CCOc1ccc(C(=O)Nc2ccc3nc(SCC(=O)N4CCc5ccccc54)sc3c2)cc1 -2.8%, CC1=C(c2ccc(C)cc2)S(=O)(=O)N(Cc2ccc(C(=O)Nc3ccc(C)c(F)c3)cc2)C1=O -1.1%, NC(=O)CSc1ncc2c(n1)-c1ccccc1N(Cc1ccc(F)cc1)S2(=O)=O 1.07%, Cc1ccc(-c2ccc(CCC(=O)O)n2-c2ccc(C(N)=O)cc2)cc1 -0.638%, COc1ccc(-c2n[nH]c3c2cnc2ccc(F)cc23)cc1 0%, CCCSc1nc(-c2ccccc2)[nH]c1S(=O)(=O)c1ccc(C)cc1 4.27%, Cc1ccc(-c2c(C(=O)NCCc3ccccc3)oc(=O)c3ccccc23)cc1 -3.51%, COc1ccc(-c2cc3ccc(O)c(CN4CCCC4)c3oc2=O)cc1 6.2%, COc1ccc2c(c1)c1c(c(=O)n(Cc3ccccc3)c(=O)n1Cc1cccc(Cl)c1)n2C -0.614%, COc1ccccc1NC(=O)c1cnc(SCC(=O)N2CCOCC2)n(C)c1=O -8.11%, CCn1cc(C(=O)NCCCOC)c(=O)c2cc(S(=O)(=O)N3CCc4ccccc4C3)ccc21 2.22%, Cc1cc(C)c2oc(-c3ccc(Cl)c(NC(=O)c4cccs4)c3)nc2c1 -1.92%, CCOC(=O)C1CCCN(CC(=O)Nc2cc(C)c3c(=O)oc4ccccc4c3n2)C1 (stereo not given) -0.399%, O=c1oc2ccc3ccccc3c2cc1-c1nnc(Nc2ccccc2F)s1 -4.43%, Cc1cc(C)cc(NC(=O)C2CCN(S(=O)(=O)c3cn(C)cn3)CC2)c1 7.27%, Cc1cc2c(cc1NS(=O)(=O)c1cccc(C#N)c1)n(C)c(=O)c(=O)n2C -8.2%, CCc1cccc(C)c1NC(=O)Cn1nnc(-c2nc(-c3ccccc3F)no2)c1N 2.76%, CC1=Nc2cc(C(=O)N3CCC(C)CC3)ccc2Sc2ccc(Cl)cc21 -26%, Cn1cc(S(=O)(=O)N2CCCCCC2)cc1C(=O)Nc1ccc(Cl)c(C(F)(F)F)c1 -0.522%, COc1ccc(NS(=O)(=O)c2cc3c(cc2C)N(C(C)=O)CCO3)cc1 -2.63%, CCCOc1ccc(C2C(=O)N(C3CCC(C)CC3)CC(=O)N2Cc2cccc(OC)c2)cc1OC (stereo not given) -4.14%, COc1ccc(CCNC(=O)c2ccc(Cn3c(=O)c4ccccc4n(Cc4cccc(F)c4)c3=O)cc2)cc1OC 3.9%, COc1ccc(-c2nc3ccccc3o2)cc1NC(=O)COc1cc(C)cc(C)c1 -2.34%, CCc1ccc(NC(=O)CCc2c(C)nn(-c3ccc(N4CCCC4)nn3)c2C)cc1 1.22%, Cc1oc2c(c1C(=O)Nc1ccc(OC(F)(F)F)cc1)C1=NCCN1C=N2 0.938%, COc1ccc(NS(=O)(=O)c2cnc(N)nc2)cc1Cl -0.961%, CC(=O)c1ccc(Oc2ncnc3c2oc2ccccc23)cc1 -0.622%, COc1ccc(NC(=O)CCS(=O)(=O)c2cc3c4c(c2)CCN4C(=O)CC3)c(OC)c1 -3.7%, COc1ccc(C(=O)c2c(N)c(C(=O)Nc3ccccc3Cl)c3ccccn23)cc1 -17.4%, Cc1cc(=O)[nH]c2nnc(SCC(N)=O)n12 0.191%, CC1CCN(C(=O)Cn2cc(SCC(=O)NCc3ccc(F)cc3)c3ccccc32)CC1 -8.88%, COc1cc(C(=O)NCCc2sc(-c3ccc(C)cc3)nc2C)cc(OC)c1OC -6.17%, Cc1nnc(N2C(=O)c3oc4ccccc4c(=O)c3C2c2cccc(OCCC(C)C)c2)s1 (stereo not given) 2.87%, CCCCc1ccc(C(=O)c2c(N)c(C(=O)Nc3cccc(OC)c3)c3ccccn23)cc1 -0.793%, COCCCNC(=O)c1c(NC(=O)Cc2coc3cc(C)ccc23)sc2c1CCCC2 -6.91%, COc1ccc(C(=O)/C=C/c2cn(CC(O)CN3CCCCCC3)c3ccccc23)cc1OC (stereo not given) -15.4%, Cc1ccc(-c2noc(-c3ccc(N4CCOCC4)c([N+](=O)[O-])c3)n2)cc1 0%, Cc1ccc(C(=O)c2oc3ccccc3c2NC(=O)COc2ccccc2C)cc1 0.847%, Cc1ccccc1CN1C(=O)c2ccccc2S(=O)c2ccc(C(=O)N3CCOCC3)cc21 (stereo not given) 1.86%, O=[N+]([O-])c1cc(-c2nc(-c3ccccc3)no2)ccc1NCc1ccco1 1.83%, Cn1c(=O)c2cc(C(=O)NCCCN3CCN(c4ccc(F)cc4)CC3)sc2c2ccccc21 0.286%, COc1ccc(CCNC(=O)CCCn2c(=O)c3ccccc3n(CC(=O)Nc3ccccc3C)c2=O)cc1OC -9.49%
